Assay results taken from publication PMC13083723 (Patterns, 2026).
About 190 (3.5%) of roughly 5,400 compounds showed an effect of 50% or more. Some of the results follow.

Tested on: Vero-E6
Test: primary screen, phospholipidosis by LipidTOX staining; higher = more effect of the substance
Details: 10 µM
Summary of the method: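 Drug-induced phospholipidosis detected with HCS LipidTOX Red reagent in Vero-E6 cells. Compounds tested at 10 μM, with amiodarone (10 μM) as positive control and DMSO (0.1 v/v %) as vehicle.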

Row | Compound | result_ITMP
1 | Oc1ccc(OC2CCCCO2)cc1 (stereo not drawn) | 1.15%
2 | O=C(NCC(=O)N1CC[C@H](N[C@H]2CC[C@@](O)(c3ccc(-c4ncccn4)cn3)CC2)C1)c1cccc(C(F)(F)F)c1 | -0.29%
3 | NCCc1cc(O)c(O)cc1O | -5.61%
4 | N[C@@H](Cc1cc(I)c(Oc2cc(I)c(O)c(I)c2)c(I)c1)C(=O)O | -2.31%
5 | CC1(C)CCC(C)(C)c2cc(NC(=O)c3ccc(C(=O)O)cc3)ccc21 | -5.64%
6 | COc1cc(C(=O)O)ccc1NC(=O)[C@@H]1N[C@@H](CC(C)(C)C)[C@](C#N)(c2ccc(Cl)cc2F)[C@H]1c1cccc(Cl)c1F | 40.5%
7 | CC(C(=O)O)c1ccc2c(c1)Cc1ccccc1-2 (stereo not drawn) | -1.32%
8 | Cc1ccc(CC2(O)CCN(CCOc3ccc(O)cc3)CC2)cc1 | -3.85%
9 | O[C@@H]1[C@H](O)[C@@H](CCl)O[C@H]1n1cnc2c(NC3CC4CCC3C4)ncnc21 (mixture of isomers) | -1.27%
10 | OCC(O)COc1ccc(Cl)cc1 (stereo not drawn) | -3.26%
11 | CC(C)=CCC[C@]1(C)C=Cc2c(O)c3c(c(CC=C(C)C)c2O1)O[C@]12C(=C[C@@H]4C[C@H]1C(C)(C)O[C@@]2(C/C=C(/C)C(=O)O)C4=O)C3=O | -0.51%
12 | CN[C@@H](C)C(=O)N[C@H](C(=O)N1CCC[C@H]1C(=O)N[C@H]1c2ccccc2C[C@H]1OCC#CC#CCO[C@@H]1Cc2ccccc2[C@@H]1NC(=O)[C@@H]1CCCN1C(=O)[C@@H](NC(=O)[C@H](C)NC)C1CCCCC1)C1CCCCC1 | 0.22%
13 | O=C(O)CSc1nnc(Br)n1-c1ccc(C2CC2)c2ccccc12 | 6.9%
14 | C1CCN2C[C@@H]3C[C@H](CN4CCCC[C@@H]34)[C@H]2C1 | 0.11%
15 | NCCCCCC(O)(P(=O)([O-])O)P(=O)(O)O | -0.14%
16 | OC(CN1CCC(Cc2ccc(F)cc2)CC1)c1ccc(Cl)cc1 (stereo not drawn) | 0.68%
17 | C[C@H]1O[C@@H](O[C@H]2CC[C@@]3(C)[C@H](CC[C@@H]4[C@@H]3C[C@@H](O)[C@]3(C)[C@@H](C5=CC(=O)OC5)CC[C@]43O)C2)C[C@H](O)[C@@H]1O[C@H]1C[C@H](O)[C@H](O[C@H]2C[C@H](O)[C@H](O[C@@H]3O[C@H](CO)[C@@H](O)[C@H](O)[C@H]3O)[C@@H](C)O2)[C@@H](C)O1 | -9.7%
18 | O=P(O)(NCCCl)NCCCl | -1.62%
19 | O=C(O)CCCCC(=O)O | -6.15%
20 | CCOC(=O)CCNc1cc(N2CCc3ccccc3CC2)nc(-c2ccccn2)n1 | -7%
21 | Cn1c(COc2ccc(CC3SC(=O)NC3=O)cc2)nc2ccccc2c1=O (stereo not drawn) | -0.39%
